# Test results as given in PubChem BioAssay AID602310 (National Center for Advancing Translational Sciences (NCATS), 2012).
# “And” between values parts separate entries of the source, which are not always exact repeats. Equal values may be shown once. The whole screen tested about 410,000 compounds, of which about 310 (0.076%) were called active. Inconclusive means that the source gave no clear call. Such entries were picked first, then a sample of the others. Calls come from the whole dose curve; as a rule, active = well fitted curve in the direction sought with a large enough effect; inconclusive = small, poorly fitted or top-dose-only effect; inactive = flat fitted curve, though single readings scatter. Potencies beside an inconclusive call are fits to weak or partial responses and may not hold up.
# Molecular target: DNA dC->dU-editing enzyme APOBEC-3G (Homo sapiens) (UniProt Q9HC16)
# Assay: qHTS for Inhibitors of Vif-A3G Interactions: qHTS; note: nearly all actives have a fitted effect of over 60% in size;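 for activity, negative = active: hits raise eYFP signal because A3G escapes Vif-driven loss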
# Details: HeLa A3G-eYFP + Vif (tagged APOBEC3G with the HIV-1 protein that degrades it), YFP fluorescence, overnight; series mostly up to 46.1 µM; activity, negative = active: at the top concentration
# In short: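 HeLa cells stably expressing Vif and C-terminally eYFP-tagged A3G, seeded overnight at 37 deg C, then exposed to compound by pintool overnight at 37 deg C. Rise in yellow fluorescence (Ex 488/Em 500-530, Acumen) marks blocked Vif-driven A3G degradation.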
# % is set by controls: 0 for no effect and ±100 for the full control effect; potency is the fitted concentration of half-maximal effect; tags give direction and shape of the fitted curve.
# Chain of UniProt Q9HC16 (Q9HC16 whole entry, looked up): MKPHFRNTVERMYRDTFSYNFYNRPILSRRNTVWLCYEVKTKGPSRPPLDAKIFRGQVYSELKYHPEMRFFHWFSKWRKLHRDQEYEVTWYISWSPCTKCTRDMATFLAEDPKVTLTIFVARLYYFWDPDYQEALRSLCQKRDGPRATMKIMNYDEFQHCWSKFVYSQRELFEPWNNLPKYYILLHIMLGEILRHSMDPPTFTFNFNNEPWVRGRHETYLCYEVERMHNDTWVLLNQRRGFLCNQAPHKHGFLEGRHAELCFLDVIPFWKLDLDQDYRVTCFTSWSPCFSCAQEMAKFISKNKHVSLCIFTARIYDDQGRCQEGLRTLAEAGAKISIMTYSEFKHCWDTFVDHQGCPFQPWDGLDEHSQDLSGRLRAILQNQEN
SMILES,Potency,"activity, negative = active"
CN(C)c1ccc(/C=C/c2ccncc2)cc1,"inactive and inconclusive: 11.2 µM [inhibitor, partial curve, poor fit]",
Cc1nc(NC(=O)/C=C/c2ccccc2)sc1C(=O)Nc1ccc(Cl)cc1,"inconclusive: 11.2 µM [inhibitor, partial curve]",
CCOC(=O)Nc1c(C(=O)OC)[nH]c2cc(OC)ccc12,"inconclusive: 11.2 µM [inhibitor, partial curve]",
CC1(C(=O)NCc2ccco2)Cc2c(-c3ccc(C(N)=O)cc3)ccnc2O1 (stereo unspecified),"inconclusive: 7.94 µM [inhibitor, partial curve]",
Cc1ccc2nc(-c3ccc(NC(=O)COC(=O)c4ccc(Br)o4)cc3)sc2c1,"inconclusive: 35.5 µM [inhibitor, single point]",
COc1cccc(C(O)c2nc(-c3ccc(N(C)C)cc3)cs2)c1 (stereo unspecified),"inconclusive: 35.5 µM [inhibitor, single point]",
CCOC(=O)Nc1cc2c(c(N)n1)N=C(c1ccccc1)CN2,"inconclusive: 11.2 µM [inhibitor, partial curve, poor fit]",
COc1ccc(OC)c(-c2cnc(OC(C)(C)C)nc2OC(C)(C)C)c1,"inconclusive: 3.98 µM [inhibitor, full curve]",
COc1ccc(Cl)cc1NC(=O)CSc1nc2c([nH]c3ccccc32)c(=O)n1-c1ccccc1,"inconclusive: 22.4 µM [inhibitor, single point]",
COc1ccc(Cn2cc(C(=O)c3ccccc3)c(=O)c3cc(OC)ccc32)cc1,"inconclusive: 17.8 µM [inhibitor, single point]",
Cc1ccc(/C=N/NC(=O)c2cc(-c3ccccc3)nc3ccccc23)o1,"inconclusive: 7.94 µM [inhibitor, partial curve]",
CC(/C=C1\SC(=Nc2cccnc2)NC1=O)=C\c1ccccc1,"inconclusive: 2 µM [inhibitor, full curve, poor fit]",
Cc1c(C(=O)N/N=C/c2cccnc2)sc(N)c1C#N,"inconclusive: 8.91 µM [inhibitor, partial curve, poor fit]",
CCCCNc1ncnc2c1cnn2-c1ccccc1,"inconclusive: 3.16 µM [inhibitor, full curve, poor fit]",
O=C(NCCc1nc2ccccc2n1CCCOc1ccccc1Cl)C1CCCCC1,,inactive: -8.72%
CC1CCc2sc(C(=O)OCC(=O)NCc3ccc(F)cc3)cc2C1 (stereo unspecified),"inconclusive: 15.8 µM [inhibitor, single point]",
COc1cc2c3nnc(-c4ccccc4)c-3cn(Cc3ccccc3F)c2cc1OC,"inconclusive: 5.62 µM [inhibitor, single point]",
Cc1cc(C(=O)CN2c3cccc4cccc(c34)S2(=O)=O)c(C)n1C,"inconclusive: 2.82 µM [inhibitor, partial curve, poor fit]",
O=c1[nH]c(/C=C/c2ccccc2Cl)nc2ccccc12,"inconclusive: 4.47 µM [inhibitor, partial curve]",
CCc1cc(-c2n[nH]c(C)c2-c2nc3ccccc3n2C)c(O)cc1O,"inconclusive: 11.2 µM [inhibitor, partial curve]",
Cc1c(/C=C2\SC(=O)N(CC(=O)Nc3ccc4c(c3)OCO4)C2=O)c2ccccc2n1C,"inconclusive: 15.8 µM [inhibitor, single point]",
COc1ccc(-c2cc(C(=O)Nc3c(C)nn(Cc4ccccc4Cl)c3C)no2)cc1,,inactive: -11.1%

SMILES,Potency,"activity, negative = active"
O=c1oc2ccccc2c(Nc2ccccc2)c1[N+](=O)[O-],"inconclusive: 20 µM [inhibitor, single point]",
CN(C)CCCNC(=O)C[C@H]1C[C@H](C(=O)N2CCCCC2)[C@@]2(C)c3[nH]c4cc(-c5ccco5)ccc4c3CCN2C1=O,"inconclusive: 22.4 µM [inhibitor, single point]",
CSc1nc(Nc2ccc(C)cc2C)cc(-c2ccccc2)n1,,inactive: 0.804%
Cc1cc(C)cc(Cn2ncc(Cl)c(Cl)c2=O)c1,"inconclusive: 22.4 µM [inhibitor, single point]",
Cc1cccc(C(=O)Nc2nnc(S(=O)(=O)N(C)Cc3ccc(Cl)cc3)s2)c1,,inactive: -0.204%
Cc1cc2nc(/C(C#N)=C/c3ccncc3)[nH]c2cc1C,"inconclusive: 10 µM [inhibitor, partial curve, poor fit]",
O=C(CN(c1ccc(Cl)cc1)S(=O)(=O)c1ccc(Cl)c([N+](=O)[O-])c1)NCCc1ccc(F)cc1,,inactive: -9.86%
O=C(N/N=C/c1ccc(O)cc1)c1csc2c1CCCC2,,inactive: -6.53%
CCCOc1cc(N(CC)CC)ccc1/C=C(/C#N)c1nc2ccc(C)cc2[nH]1,"inconclusive: 0.631 µM [inhibitor, full curve, poor fit]",
O=C(N/N=C/C=C/c1ccccc1)c1n[nH]c2c1CCC2,"inconclusive: 2.24 µM [inhibitor, full curve, poor fit]",
CCn1c2ccccc2c2cc(NC(=O)c3cc(OC)cc(OC)c3)ccc21,"inconclusive: 0.316 µM [inhibitor, full curve, poor fit]",
CCOC(=O)C1=C(COc2ccc(C)cc2)NC(=O)NC1c1cc(C)ccc1C (stereo unspecified),,inactive: -1.02%
Cc1ccc(C)c2nc3sc(C(=O)N4CCOCC4)c(N)c3cc12,active: 10 µM,
COc1ccc(S(=O)(=O)N(Cc2ccccc2)c2ccccc2C(=O)N2CCOCC2)cc1,"inconclusive: 22.4 µM [inhibitor, single point]",
CC(O)(P(=O)(O)O)P(=O)(O)O,,inactive: -0.111%
COCc1c(C(=O)N2CCN(S(=O)(=O)c3ccccc3Cl)CC2)oc2ccccc12,,inactive: 1.46%
O=C(NC1(C(F)(F)F)NC(=O)N(c2ccc(F)c(Cl)c2)C1=O)c1ccncc1 (stereo unspecified),"inconclusive: 35.5 µM [inhibitor, partial curve, poor fit]",
O=C(Oc1cccc2cccnc12)c1ccco1,"inconclusive: 35.5 µM [inhibitor, single point]",
NCCCn1c(C(=O)c2cc(Cl)c(N)c(Cl)c2)c2ccc(C(F)(F)F)cc2[n+]1[O-],,inactive: 5.01%
S=C(Nc1cccc(Cl)c1)Nc1cccc2cnccc12,,inactive: -0.845%
Cc1sc2ncnc(Sc3ccccc3C(=O)Nc3ccc(Br)cc3)c2c1C,,inactive: 0.954%
COc1cc(C(=O)Oc2cccc(/C=N/NC(=O)c3cccnc3)c2)cc(OC)c1OC,"inconclusive: 15.8 µM [inhibitor, single point]",

SMILES,Potency,"activity, negative = active"
CN(C)CCn1cnc2c(c1=N)C(c1ccccc1)c1ccc3ccccc3c1O2 (stereo unspecified),"inconclusive: 22.4 µM [inhibitor, single point]",
COc1ccc(OCC(=O)Nc2ccccc2-c2ccccc2)cc1,"inconclusive: 4.47 µM [inhibitor, full curve, poor fit]",
CCOc1ccc(C2=Nn3c(nnc3-c3ccc(OC)cc3)SC2)cc1,"inconclusive: 1.26 µM [inhibitor, full curve, poor fit]",
CC(c1ccccc1)N1CCN(C(=O)CCl)CC1 (stereo unspecified),"inconclusive: 35.5 µM [inhibitor, single point]",
CC(C)(C)c1ccc(Cn2c(=O)cnc3ccccc32)cc1,"inconclusive: 3.55 µM [inhibitor, single point]",
O=C(CCl)NCCCN(C(=O)C(Cl)Cl)c1ccc([N+](=O)[O-])cc1,"inconclusive: 35.5 µM [inhibitor, single point]",
CC(C)(C)c1ccc(-c2nc(C#N)c(N3CCC(C(N)=O)CC3)o2)cc1,,inactive: -0.296%
CC1(c2ccc3c(c2)OCCO3)NC(=O)N(CC(=O)Nc2ccccc2SCC#N)C1=O (stereo unspecified),"inconclusive: 31.6 µM [inhibitor, single point]",
Cc1cc(C(=O)OCC(=O)NCc2ccco2)c(C)n1-c1ccccc1,"inconclusive: 2 µM [inhibitor, full curve, poor fit]",
Cc1cc(Nc2cccc(Cl)c2)c2ccccc2n1,,inactive: 0.799%
Nc1ncnc(Sc2ncccn2)c1[N+](=O)[O-],"inconclusive: 35.5 µM [inhibitor, single point]",
Cc1cc(/C=C2\SC(=S)N(C)C2=O)c(C)n1-c1ccccc1O,"inconclusive: 15.8 µM [inhibitor, partial curve, poor fit]",
CCn1c(=O)c2cc(C(=O)NCCCOC)sc2c2ccccc21,"inconclusive: 10 µM [inhibitor, partial curve] and inconclusive: 11.2 µM [inhibitor, partial curve]",
CC(=O)NCc1ccc(-c2csc(-c3cccs3)n2)cc1,"inconclusive: 35.5 µM [inhibitor, partial curve, poor fit]",
O=C1CCCCN1CC(=O)N1CCCC(Nc2ccc(F)c(F)c2)C1 (stereo unspecified),,inactive: 0.538%
COc1ccc(Nc2nnc(-c3ccccc3)c3ccccc23)cc1C(=O)N1CCCCC1,,inactive: 0.135%
O=S(=O)(O)c1ccc2c(N=Nc3ccc(S(=O)(=O)O)c4ccccc34)c(O)c(S(=O)(=O)O)cc2c1,,inactive: 4.59%
COc1ccc(N2CCN(C(=O)c3cnn(-c4ccc(F)cc4)c3-n3cccc3)CC2)cc1,,inactive: -4.94%
O=C(NNc1ncc(C(F)(F)F)cc1Cl)c1c(Cl)cccc1Cl,"inconclusive: 7.94 µM [inhibitor, partial curve, poor fit]",
C=CCNCC(=O)N1N=C(c2ccc3ccccc3c2)CC1c1ccc(OC)cc1 (stereo unspecified),"inconclusive: 17.8 µM [inhibitor, single point]",
COC(=O)c1c(Oc2ccc(OC)cc2)nnc(-c2ccccc2)c1-c1ccccc1,,inactive: 2.86%
Nc1c2c(nc3ccn(-c4ccccc4)c(=O)c13)CCCCC2,,inactive: 0.0279%
